The list shows a part of the results.

For 31 sequences, binding signal results are on record in publication PMC12820563, “FoxP3 forms a head-to-head dimer in vivo and stabilizes its multimerization on adjacent microsatellites”.

This test addresses T1, MBP-FoxP1dN (Mus musculus, UniProt P58462 326-579).
T1 sequence: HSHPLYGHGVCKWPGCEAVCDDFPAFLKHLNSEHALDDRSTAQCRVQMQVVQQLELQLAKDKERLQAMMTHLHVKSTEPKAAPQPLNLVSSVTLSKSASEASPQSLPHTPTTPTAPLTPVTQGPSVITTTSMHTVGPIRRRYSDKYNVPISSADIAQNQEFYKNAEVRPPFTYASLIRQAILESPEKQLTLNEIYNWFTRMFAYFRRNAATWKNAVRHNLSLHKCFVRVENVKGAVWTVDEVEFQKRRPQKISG
Put plainly: PD-seq (MBP pull-down with sequencing); 20 mM Tris-HCl pH 7.5, 100 mM NaCl, 1.5 mM MgCl2, 0.4 uM protein, 0.1 uM dsDNA library, 30 min, room temperature, amylose pull-down; high values mean tight binding. The note with it: protein: recombinant; tags: His6-MBP; chain copies: 2; dsDNA, one strand shown. The procedure, abridged: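 A fragment of mouse FoxP3 or FoxP1 without its N-terminus, carrying a His6-MBP tag and produced in E. coli, was combined at 0.4 µM with a 0.1 µM degenerate double-stranded DNA library filled in with Klenow. The mixture sat for 30 min at room temperature in Tris pH 7.5 buffer containing NaCl and MgCl2. Protein–DNA complexes were captured on amylose resin, washed three times, and the DNA was freed with proteinase K, barcoded by PCR and sequenced on Illumina. Binding is expressed as reads-per-million enrichment of pull-down over input, with replicates pooled.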
Consider “GATGATTGTTCTCCCAGCTGATGAATTATCCCAGTCGAGTAAACAAATTTTCCTAATCTTTCTGTTCAAGCGCCATCTAC”, for which the binding signal is 0.862 RPM ratio (pull-down/input).
Take “GATGATTGTTCTCCCAGCTGATGAATTCGCCAGATCGAGTAAACAAATTTTCCTAATCTTTCTGTTCAAGCGCCATCTAC”: the binding signal is 0.873 RPM ratio (pull-down/input).
Then “GATGATTGTTCTCCCAGCTGATGAATTCCCTCTGTCGAGTAAACAAATTTTCCTAATCTTTCTGTTCAAGCGCCATCTAC”, with 0.793 RPM ratio (pull-down/input); and “GATGATTGTTCTCCCAGCTGATGAATTGACAGTTTCGAGTAAACAAATTTTCCTAATCTTTCTGTTCAAGCGCCATCTAC”, with 1.26 RPM ratio (pull-down/input).
The same measure for “GATGATTGTTCTCCCAGCTGATGAATTTCACTGTTCGAGTAAACAAATTTTCCTAATCTTTCTGTTCAAGCGCCATCTAC”: 0.875 RPM ratio (pull-down/input); for “GATGATTGTTCTCCCAGCTGATGAATTACGAGCTTCGAGTAAACAAATTTTCCTAATCTTTCTGTTCAAGCGCCATCTAC”: 0.95 RPM ratio (pull-down/input); for “GATGATTGTTCTCCCAGCTGATGAATTCATCTCCTCGAGTAAACAAATTTTCCTAATCTTTCTGTTCAAGCGCCATCTAC”: 0.806 RPM ratio (pull-down/input).
The same measure for “GATGATTGTTCTCCCAGCTGATGAATTCGCCCTGTCGAGTAAACAAATTTTCCTAATCTTTCTGTTCAAGCGCCATCTAC”: 0.8 RPM ratio (pull-down/input).
In the case of “GATGATTGTTCTCCCAGCTGATGAATTACTGTATTCGAGTAAACAAATTTTCCTAATCTTTCTGTTCAAGCGCCATCTAC”, the binding signal was 1.39 RPM ratio (pull-down/input).
The same measure for “GATGATTGTTCTCCCAGCTGATGAATTTGGTATCTCGAGTAAACAAATTTTCCTAATCTTTCTGTTCAAGCGCCATCTAC”: 0.989 RPM ratio (pull-down/input); for “GATGATTGTTCTCCCAGCTGATGAATTACTAATATCGAGTAAACAAATTTTCCTAATCTTTCTGTTCAAGCGCCATCTAC”: 1.73 RPM ratio (pull-down/input).
“GATGATTGTTCTCCCAGCTGATGAATTGAAGCACTCGAGTAAACAAATTTTCCTAATCTTTCTGTTCAAGCGCCATCTAC”: the binding signal is 0.871 RPM ratio (pull-down/input).
Then “GATGATTGTTCTCCCAGCTGATGAATTATAGAAGTCGAGTAAACAAATTTTCCTAATCTTTCTGTTCAAGCGCCATCTAC”, with 0.881 RPM ratio (pull-down/input); and “GATGATTGTTCTCCCAGCTGATGAATTATCGGTTTCGAGTAAACAAATTTTCCTAATCTTTCTGTTCAAGCGCCATCTAC”, with 1 RPM ratio (pull-down/input).
Then “GATGATTGTTCTCCCAGCTGATGAATTCGAAGTATCGAGTAAACAAATTTTCCTAATCTTTCTGTTCAAGCGCCATCTAC”, with 0.963 RPM ratio (pull-down/input); and “GATGATTGTTCTCCCAGCTGATGAATTTGGGAGCTCGAGTAAACAAATTTTCCTAATCTTTCTGTTCAAGCGCCATCTAC”, with 0.761 RPM ratio (pull-down/input); and “GATGATTGTTCTCCCAGCTGATGAATTTAGGTATTCGAGTAAACAAATTTTCCTAATCTTTCTGTTCAAGCGCCATCTAC”, with 1.13 RPM ratio (pull-down/input).
Then “GATGATTGTTCTCCCAGCTGATGAATTGCTGGGCTCGAGTAAACAAATTTTCCTAATCTTTCTGTTCAAGCGCCATCTAC”, with 0.87 RPM ratio (pull-down/input).
On to “GATGATTGTTCTCCCAGCTGATGAATTGGTGGAGTCGAGTAAACAAATTTTCCTAATCTTTCTGTTCAAGCGCCATCTAC”, for which the binding signal is 0.861 RPM ratio (pull-down/input).
The same measure for “GATGATTGTTCTCCCAGCTGATGAATTCATCGCGTCGAGTAAACAAATTTTCCTAATCTTTCTGTTCAAGCGCCATCTAC”: 0.951 RPM ratio (pull-down/input); for “GATGATTGTTCTCCCAGCTGATGAATTCCATGCGTCGAGTAAACAAATTTTCCTAATCTTTCTGTTCAAGCGCCATCTAC”: 0.952 RPM ratio (pull-down/input); for “GATGATTGTTCTCCCAGCTGATGAATTCGCTATGTCGAGTAAACAAATTTTCCTAATCTTTCTGTTCAAGCGCCATCTAC”: 0.819 RPM ratio (pull-down/input).
Consider “GATGATTGTTCTCCCAGCTGATGAATTCACGCAGTCGAGTAAACAAATTTTCCTAATCTTTCTGTTCAAGCGCCATCTAC”, for which the binding signal is 1.02 RPM ratio (pull-down/input).
As to “GATGATTGTTCTCCCAGCTGATGAATTTGCCGGTTCGAGTAAACAAATTTTCCTAATCTTTCTGTTCAAGCGCCATCTAC”, the binding signal was 0.889 RPM ratio (pull-down/input).
Then “GATGATTGTTCTCCCAGCTGATGAATTATGTGATTCGAGTAAACAAATTTTCCTAATCTTTCTGTTCAAGCGCCATCTAC”, with 1.13 RPM ratio (pull-down/input); and “GATGATTGTTCTCCCAGCTGATGAATTCCATCAATCGAGTAAACAAATTTTCCTAATCTTTCTGTTCAAGCGCCATCTAC”, with 0.963 RPM ratio (pull-down/input).
The same measure for “GATGATTGTTCTCCCAGCTGATGAATTGTTGGTCTCGAGTAAACAAATTTTCCTAATCTTTCTGTTCAAGCGCCATCTAC”: 1.66 RPM ratio (pull-down/input); for “GATGATTGTTCTCCCAGCTGATGAATTTCCGTGTTCGAGTAAACAAATTTTCCTAATCTTTCTGTTCAAGCGCCATCTAC”: 0.936 RPM ratio (pull-down/input).
In the case of “GATGATTGTTCTCCCAGCTGATGAATTATCCTCCTCGAGTAAACAAATTTTCCTAATCTTTCTGTTCAAGCGCCATCTAC”, the binding signal is 0.979 RPM ratio (pull-down/input).
For the sequence “GATGATTGTTCTCCCAGCTGATGAATTCTGTCCATCGAGTAAACAAATTTTCCTAATCTTTCTGTTCAAGCGCCATCTAC”, the binding signal was 0.857 RPM ratio (pull-down/input).
Consider “GATGATTGTTCTCCCAGCTGATGAATTTGAAGGGTCGAGTAAACAAATTTTCCTAATCTTTCTGTTCAAGCGCCATCTAC”, for which the binding signal is 0.789 RPM ratio (pull-down/input).
